The text below walks through data of PMC12136788.

The chains are these.
B1: chr12:6965580:6965681:-|3pUTR|ENSG00000215021|unk|FALSE|unique (ssRNA)
RNA: GGGAGUUCUACAGUCCGACGAUCGUCAUUAUCUAUCUUUUUUUUCCUACAGUGACAGCCUCAUCAAGGGUAAGAAAUGAGCCUAGUCACCAAGAACUCCACCCCCAGAGGAAGUGGAUCUGCUUCUCCAGUUUUUGAGGAGCCCAACAGAGGAUUGAGCAUCA
B2: chr4:173248057:173248158:+|CDS|ENSG00000109586|unk|FALSE|bound_elsewhere (ssRNA)
RNA: GGGAGUUCUACAGUCCGACGAUCUUCAAACCUGUGGUACCAUGGCCUCAUGUUGAAGGAGUAGAAGUGGACUUAGAGUCUAUUAGAAGAAUAAACAAGGCCAAAAAUGAACAAGAGCACCAUGCUGGAGGAGAUUCCCAGAAACAACAGAGGAUUGAGCAUCA
B3: chr16:57758216:57758909:-|three_prime_utr|ENSG00000140859|control|control|control (ssRNA)
RNA: GGGAGUUCUACAGUCCGACGAUCGGGCCUGAAGCUGGGCCCUCACUGGCCUGUCCCUGCUGCAGCGCCAGGACCCCCGGAGGUAGAGGCGAGAGUGGAGGCUCUUCUUCUGCCCCGUCUCCCCUCAAAGAUGAGAAACAUGUUCAACAGAGGAUUGAGCAUCA
B4: chr8:52158897:52159109:-|CDS|ENSG00000147488|control|control|control (ssRNA)
RNA: GGGAGUUCUACAGUCCGACGAUCCCAGAGCCCUGGCCGUGCCAGCUCUUAUAGCUACGGUCAAUGUAGUGAAGACACCCACAUAGCAGCAGCUGCUGCCAUCCUGAACCUUUCCACCCGCUGCAGGGAAGCCACAGACAUCCUCAACAGAGGAUUGAGCAUCA
B5: chr7:137014887:137014989:+|CDS|ENSG00000181072|unk|total|mutant (ssRNA)
RNA: GGGAGUUCUACAGUCCGACGAUCGCUACUUGGCUACUGAUCCGAGAACGCAAAAUGAAUAACUCAACAAACUCCUCUAACAACCGCCUGGCUCUUACAAGUCCUUAUAAGACAUUUGAAGUGGUGUUUAUUGUCCUGGUGGCUCAACAGAGGAUUGAGCAUCA
B6: chr1:173734013:173734119:+|CDS|ENSG00000076321|unk|total|mutant (ssRNA)
RNA: GGGAGUUCUACAGUCCGACGAUCCAUUGACGAGAGGGCUAUGGAAUUACUGAUUGACUUUGCGUAUACCUCCCAGAUAACAGCCGAAGAGGGCAAUGUUCAGACUCUUCUGCCAGCUGCUUGCCUCCUCCAGCUGGCAGAAAUCAACAGAGGAUUGAGCAUCA
B7: chr10:75397829:75398748:-|three_prime_utr|ENSG00000165655|control|control|control (ssRNA)
RNA: GGGAGUUCUACAGUCCGACGAUCCACUUUCACCUCCCCACCCAAACUUUAUAAAAGUUGAAAAAAUAUCAUUUGACUUUUUAUAGAAAAAAAAAGGAAAAAAUAAUUGAGAAAGUGUUCAUCUGAGGACUGCAUCGGUGGACACAACAGAGGAUUGAGCAUCA
B8: chr3:112140897:112141281:-|three_prime_utr|ENSG00000172139|control|control|control (ssRNA)
RNA: GGGAGUUCUACAGUCCGACGAUCACUUUUUGCAAAAUUUCCUUGAUUUAAAAUAUUUGUUAUUUUAAAUAUACAAAACAUUUUAGAAAAUCUUAGAGUAAAUUUUAGUCUUAAAGCCAGAAAAUAAGUUUAUAGCCAUCUAGACAACAGAGGAUUGAGCAUCA
B9: ENSG00000198589:be:win_1101|CDS|ENSG00000198589|bound_else_gene|NA|bound_elsewhere_windowed (ssRNA)
RNA: GGGAGUUCUACAGUCCGACGAUCCAGUGAAGCUCUAAAUGCAGCUCAGAUAUUUGCUAUUUAUCAGUUGGGCCUGGGAUACAAGGGUACAUUUAAAUUCAAAGCAGAAAGCGACCUUUUCCUUGCUGAGCAUCACAAACUUUUCAACAGAGGAUUGAGCAUCA
B10: chr18:55226207:55226308:-|3pUTR|ENSG00000196628|unk|FALSE|unique (ssRNA)
RNA: GGGAGUUCUACAGUCCGACGAUCAUUUUUACAGCCACACAAUUCUUGGCAUGUAUUAAGAAAAAAAAAAAUCCCUGUUCAAGUAGUUUUUCCACCUAUCAGCACUGAGUAAAUGCCAUAAAUCCAUUGAAAUGGUCUAAAUGUCAACAGAGGAUUGAGCAUCA
B11: chr5:36975901:36976008:+|CDS|ENSG00000164190|unk|FALSE|unique (ssRNA)
RNA: GGGAGUUCUACAGUCCGACGAUCAUGAAAUUAGGCAAGGAUGAAAAAGAGCAGAGUGAGAAAGCGGCAAUGUAUGAUAUAAUUAGUUCUCCAUCCAAGGACUCUACUAAACUUACAUUAAGACUUUCUCGUGUAAGGUCUUCACAACAGAGGAUUGAGCAUCA
B12: ENSG00000198589:be:win_3001|CDS|ENSG00000198589|bound_else_gene|NA|bound_elsewhere_windowed (ssRNA)
RNA: GGGAGUUCUACAGUCCGACGAUCCUAGAAUCUGCAUCUAAUAUUGAACUGCAAACUACUAAUACAUCUUAUGAAGAAAUGAAAGCUGAGCAAGAAAAUCAGGAGUUACCAGAUGAAGGCACUUUGGAAGAAACACUGACAAAUCAACAGAGGAUUGAGCAUCA
B13: ENSG00000080224:stop:overlap|stop_codon|ENSG00000080224|stop_codon|NA|stop_codon (ssRNA)
RNA: GGGAGUUCUACAGUCCGACGAUCGUACAGGAUAUGAAGAAAUUGAGGGUUCUUGCCAUGGAGCCUCCAAAGGCCGCUGCUUCUAGUUGGCCAUCUUGGCCCCACCCCGAAACAGUAACCUUUGAAGAAUAAAAGAAAAAGCAACAACAGAGGAUUGAGCAUCA
B14: chr16:55506527:55506628:+|3pUTR|ENSG00000087245|msi1|total|mutant (ssRNA)
RNA: GGGAGUUCUACAGUCCGACGAUCUAUCAGUUUUAAUGCUACUACUAACAAUGAACAGUAACAAUAAUAUCCCCCUCAAUUAACCGAGUGCUUUCUAUGUGCAAGGCACUUUUCACGUGUCACCUAUUUUAACCUUUCCAACCACAACAGAGGAUUGAGCAUCA

The other results are listed elsewhere or left out.

This assay deals with MSI1 full-length (mouse, UniProt Q61474 1-362). In words: nsRBNS (natural sequence RNA bind-n-seq); RBNS binding buffer (assumed for nsRBNS): 25 mM Tris pH 7.5, 150 mM KCl, 3 mM MgCl2, 0.01% Triton X-100, 500 ug/ml BSA, 20 U/ml SUPERase-In, 4 C; UNK is unkempt and MSI1 is Musashi-1; names of the RNAs are library labels; protein concentration not given here; high values mean tight binding.
UniProt Q61474, sequence (Q61474 whole entry): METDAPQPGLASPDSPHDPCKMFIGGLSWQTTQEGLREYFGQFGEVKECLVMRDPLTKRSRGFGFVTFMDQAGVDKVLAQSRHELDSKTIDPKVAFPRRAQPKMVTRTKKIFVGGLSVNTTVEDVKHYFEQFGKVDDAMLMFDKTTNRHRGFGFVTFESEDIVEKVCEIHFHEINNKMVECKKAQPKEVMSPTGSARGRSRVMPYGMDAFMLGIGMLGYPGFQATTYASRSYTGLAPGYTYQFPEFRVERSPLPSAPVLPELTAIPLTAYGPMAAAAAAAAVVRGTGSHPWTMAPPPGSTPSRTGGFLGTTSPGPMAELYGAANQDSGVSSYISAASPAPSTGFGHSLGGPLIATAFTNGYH
In turn, B1 came in with a binding signal of 1.07 enrichment R.

For the molecule B2, the binding signal turned out to be 6.27 enrichment R.

Molecule B3 registered a binding signal of 0.392 enrichment R.

For B4, the binding signal is 0.862 enrichment R.

B5 came in with a binding signal of 0.305 enrichment R.

On to B6, for which the binding signal was 0.492 enrichment R.

B7: the binding signal worked out at 0.554 enrichment R.

B8 returned a binding signal of 14.9 enrichment R.

As to B9, the binding signal came out at 0.395 enrichment R.

For the molecule B10, the binding signal came to 0.374 enrichment R.

B11 came in with a binding signal of 0.703 enrichment R.

Molecule B12 gave a binding signal of 0.527 enrichment R.

B13 registered a binding signal of 0.769 enrichment R.

For B14, the binding signal is 4.38 enrichment R.
